Reference: PubChem BioAssay AID1508624 (National Center for Advancing Translational Sciences (NCATS), 2021)
Out of some 48,000 compounds screened, about 120 (0.25%) were called active. Roughly 4% stayed inconclusive and do not appear here. Calls come from the whole dose curve; as a rule, active = well fitted activation curve with a large enough effect; inconclusive = small, poorly fitted or top-dose-only effect, or another doubt; inactive = no such curve, though single readings can be large or run the other way. The list shows a part of the results.

Experiment: Primary qHTS for Identification of Small Molecule Activators of Huntingtin-Antisense Promoter Activity; note: nearly all actives have a fitted effect of over 55% in size
Settings: HEK293 HTT-AS promoter firefly luciferase reporter, 24 h; series mostly up to 57.5 µM; activity change, positive = activation: at the top concentration
How it was run: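 Firefly luciferase readout (Dual-Glo, 10 min RT) after 24 h, 37 °C compound exposure (final up to 57.5 uM) of HEK293 reporter cells cultured 24 h beforehand; PTC124 at 50 uM final as control inhibitor; activity scaled vehicle 0%, zero RLU -100%.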

Activity change, positive = activation, inactive:
O=C(COc1ccccc1F)Nc1c(C(=O)Nc2cccc(F)c2)oc2ccccc12 9.84%
Cc1ccc(C(=O)Nc2nc3nc(-c4ccccc4)cc(=O)n3[nH]2)cc1 11.4%
O=C(Nc1cc(-c2ccccc2F)nn1-c1ccccc1)c1ccccc1Br -26.6%
CCCCCOC(=O)CSc1nc2sc3c(c2c(=O)n1-c1ccccc1)CC(C)(CC)OC3 (stereo not drawn) -9.45%
CC1CCN(C(=O)Cn2cc(SCC(=O)Nc3ccccc3)c3ccccc32)CC1 -4.33%
COc1cccc(-c2nc(SCC(=O)NCc3ccco3)c3c(=O)n(C)c(=O)n(C)c3n2)c1 7.07%
CCOC(=O)c1noc2ncnc(N3CCN(c4cccc(C(F)(F)F)c4)CC3)c12 -10.9%
COc1ccc(Cn2c(=O)n(-c3ccc(OC)cc3)c(=O)c3c2c2cc(OC)ccc2n3C)cc1 0.045%
COc1ccc(-c2cc(C)no2)cc1S(=O)(=O)NCc1ccco1 -24.1%
CCN(CC)S(=O)(=O)c1ccc2c(c1)c(=O)c(C(=O)NCc1ccccc1Cl)cn2C -49.9%
CCOC(=O)c1c(-c2ccc(C)cc2)csc1NC(=O)c1cc(=O)c2cc(C)cc(C)c2o1 2.26%
COc1cc(NC(=O)c2c3c(nc4ccccc24)C(=O)N(C2CCCCC2)C3)cc(OC)c1 -3.63%
COc1ccc(-n2c(SCc3ccccc3F)nc3c([nH]c4ccccc43)c2=O)cc1OC -36.7%
O=C(CSc1c2c(nc3cc(Cl)ccc13)CCCC2)N1CCN(c2ccccc2)CC1 -52.5%
CC1(C)O[C@@H]2[C@@H](CO[C@@]3(COS(N)(=O)=O)OC(C)(C)O[C@@H]23)O1 -8.03%
COc1ccc(OC)c(CCNC(=O)CCn2c(=O)c3cccn3c3ccc(F)cc32)c1 -3.29%
Cc1cccc(S(=O)(=O)c2cn(C)c3cc(N4CCN(c5ccc(F)cc5)CC4)c(F)cc3c2=O)c1 -17.7%
CC(C)c1ccc(NC(=O)CSC2=Nc3ccccc3C3=NC(CCC(=O)NCc4ccco4)C(=O)N23)cc1 (stereo not drawn) 25.1%
COc1cc(NS(=O)(=O)c2ccc(N)cc2)nc(OC)n1
CC[N+](CC)(CC(=O)Nc1c(C)cccc1C)Cc1ccccc1 -6.78%
Cc1ccc(CNC(=O)CCS(=O)(=O)c2cc3c(cc2C)NC(=O)CO3)cc1 -6.73%
O=C(CSc1nc2c(oc3ccccc32)c(=O)n1Cc1ccco1)Nc1ccccc1 -2.26%
Cc1ccc(CN2CCCN(Cc3c(C)cc(C)cc3C)S2(=O)=O)cc1 -9.29%
CCCSC1=NC2(CCN(C(=O)NC3CCCCC3)CC2)N=C1c1ccc(Cl)cc1 -20.4% [at 11.5 µM, percent change from vehicle, -100% = no light]
Cc1cccc(CSc2nc(-c3cccc(C)c3)nc3c2Cc2c(CO)cnc(C)c2O3)c1 -10.1%
COc1ccc(C)cc1NC(=O)COCc1cc(-c2ccc(F)cc2)on1 10.7%
CC(C)(C)C(=O)OCc1cc(=O)n2nc(C3CC3)sc2n1 19.8%
Cc1nn(Cc2noc(C(=O)NC(C)c3ccccc3)n2)c(C)c1Br (stereo not drawn) -15.6%
Cc1ccc(N2CCN(S(=O)(=O)c3c(C)[nH]c(=O)[nH]c3=O)CC2C)cc1 (stereo not drawn) -11.9%
CCCN(CCC)c1nn2c(=O)c(C(=O)NCc3cc(Br)ccc3OC)cnc2s1 -12.8%
CCOC(=O)c1cc(-c2ccccc2)n(CC(=O)Nc2ccc(CC)cc2)c1C -18%
COc1cc(Cl)c(C)cc1NC(=O)Cn1cc(S(=O)(=O)N2CCC(C)CC2)c2ccccc2c1=O -24.2%
CCCCN1CCC(CNC(=O)c2c3n(c4ccccc24)CCCO3)CC1 -23.5%
Cc1ccc(Cn2c(=O)n(Cc3ccco3)c(=O)c3oc4ccccc4c32)cc1 -8.61%
C[C@]12CC[C@H]3[C@@H](CCC4=CC(=O)CC[C@@]43C)[C@@H]1CC[C@@H]2C(=O)CO -22.1%
CCOc1ccc(OCC)c(NC(=O)c2cnc(SC)nc2-c2ccccc2)c1 -27.1%
Cc1ccc(C)c(NC(=O)CSc2nc3c([nH]c4ccccc43)c(=O)n2-c2ccc(F)cc2)c1 -23.9%
COc1ccc(CC(=O)NCC(c2ccc(Cl)cc2)N2CCOCC2)cc1 (stereo not drawn) -9.35%
Cc1ccc(C)c(Cn2c(=O)n(-c3ccc(Cl)cc3)c(=O)c3c(C)c(C)sc32)c1 20.4%
Cc1ccc(S(=O)(=O)c2nnn3c2nc(NC2CCCCC2)c2sccc23)cc1 -32.8%
CN(C)S(=O)(=O)c1ccc2c(c1)nnn2CCNC(=O)Nc1ccc(Cl)cc1 -10.7%
Cc1ccc(Cc2cn3cc(-c4ccccc4)nc3s2)cc1 -31.4%
CC(C)n1cnc2c(NCCCCCCNC(=O)OC(C)(C)C)nc(NCCO)nc21 -31%
CCCCNC(=O)c1ccccc1NC(=O)CN(c1ccccc1)S(=O)(=O)N(C)C -12.9%
O=C(CSc1nc(=O)n(Cc2ccco2)c2c1CCC2)Nc1ccccc1C(F)(F)F -35.9%
Cc1ccc(Cl)cc1N1CCN(C(=O)c2cc(S(=O)(=O)N3CCCC3)c[nH]2)CC1 -28.7%
CCOC(=O)CNC(c1ccccc1)c1cc(Br)ccc1NC(=O)c1cccc(Cl)c1 (stereo not drawn) -13.2%
CCc1ccc(NC(=O)C2CCCN(S(=O)(=O)c3ccc(F)cc3)C2)cc1 (stereo not drawn) -13.5%
CCc1nnc(SCC(=O)N(CC)c2ccccc2)c2cc3oc(C)cc3n12 -11%
CC(=O)N1CCCc2cc(S(=O)(=O)N3CCC(C(=O)NCc4ccccc4)CC3)ccc21 -14.1%
CCN(Cc1ccccc1)C(=O)Cn1c(=O)n(-c2ccc(Cl)cc2)c(=O)c2c(C)c(C)sc21 -17.5%
CCCNC(=O)Cn1c(=O)c2cccn2c2cccnc21 -18.4%
CCCNC(=O)C1Cc2cc(S(=O)(=O)N3CCCCCC3)ccc2N1C(C)=O (stereo not drawn) 5.58%
CCn1c(C(=O)NCc2ccccc2Br)cc2oc3ccccc3c21 -36.1%
CCCn1cnc2cc(NCc3ccccc3OCC)ccc21 -5.96%
COC(=O)c1ccc(C(=O)OC)c(NC(=O)c2cc3nc(-c4ccc(C)cc4)cc(C(F)(F)F)n3n2)c1 -4.22% [at 11.5 µM, percent change from vehicle, -100% = no light]
COc1ccc(C2=NS(=O)(=O)N(C)C(C(=O)N(C)Cc3ccccc3)=C2)cc1OC -22.1%
Cc1ccccc1OCc1nc2ccccc2n1Cc1ccccc1Cl -5.33%
